In PubChem BioAssay AID1508623 (National Center for Advancing Translational Sciences (NCATS), 2021):
Hit rate of the full screen: of about 48,000 compounds, about 450 (0.94%) were called active. Another 19% or so got no clear call; they are omitted. The call rests on the fitted dose curve; in most records, active means well fitted inhibition curve with a large enough effect; inconclusive means small, poorly fitted or top-dose-only effect; inactive means no such curve, though single readings can be large or run the other way. Some of the results follow.

Assay: Primary qHTS for Identification of Small Molecule Inhibitors of Huntingtin Promoter Activity; further: nearly all actives have a fitted effect of over 50% in size
Conditions: HEK293 HTT promoter firefly luciferase reporter (activity 0% = vehicle and -100% = no light), 24 h; series mostly up to 57.5 µM; activity change, negative = inhibition: at the top concentration
In short: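 Firefly luciferase signal from promoter-reporter HEK293 cells was scaled between vehicle (0%) and zero RLU (-100%). Compounds were tested at final concentrations of up to 57.5 uM over 24 h at 37 degrees C. PTC124 at 50 uM final served as control inhibitor.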
Potency means the concentration at half of the fitted maximal effect.

SMILES	activity change, negative = inhibition	Potency
Cc1ccc(-n2c(/C=C/c3c(C)n(C)c4ccccc34)nc3ccccc3c2=O)cc1	inactive: -2.25%	
Cc1ccc(C)c(NS(=O)(=O)c2cc3c(cc2C)n(C)c(=O)c(=O)n3C)c1	inactive: -7.76%	
CCOC(=O)c1c(NC(=O)Cc2coc3cc(C)cc(C)c23)sc2c1CCC2	inactive: -5.59%	
CC(=O)c1ccc(NC(=O)c2cc(C)nn2-c2ccccc2)cc1	inactive: 4.03%	
COCCN(CCOC)S(=O)(=O)c1ccc(C(=O)Nc2sc3c(c2C(=O)OC)CCN(C)C3)cc1	inactive: -11.2%	
CCOc1cccc(C(=O)Nc2ccc(-c3nc4ncccc4o3)cc2C)c1	inactive: -0.878%	
CN(C)S(=O)(=O)N(CC(=O)NCCSCc1c(F)cccc1Cl)c1ccccc1	inactive: -25.4%	
CCOC(=O)c1ccccc1NC(=O)c1sc2nc3n(c(=O)c2c1C)CCCCC3	inactive: -11%	
COC(=O)c1c(NC(C)=O)c2c3c(sc2n1Cc1cc(C)ccc1C)CCCC3	inactive: 10.8%	
Cc1cccc(-n2c(C)cc(C(=O)C(=O)Nc3ccccc3F)c2C)c1C		active: 8.91 µM
CCCN1CCN(CCCNC(=O)c2cc3c(=O)n(CC)c4ccccc4c3s2)CC1	inactive: 12.4%	
O=c1[nH]c(SCc2c(F)cccc2Cl)nc2c1CCC2	inactive: -15.6%	
COc1ccc(C(=O)c2oc3ccccc3c2NC(=O)c2cc(=O)c3ccc(C)cc3o2)cc1Cl	inactive: 6.33%	
Cc1cccc(C(=O)Nc2nnc(S(=O)(=O)N(C)Cc3ccccc3)s2)c1	inactive: -10.3%	
CCOc1ccc(-c2cccc(NS(=O)(=O)c3ccc(F)cc3F)c2)nn1	inactive: -14.1%	
COc1ccc(-c2noc(CNC(=O)c3ccccc3Br)n2)cc1	inactive: -22.7%	
CCOc1ccc2ncc3c(-c4ccc(C)cc4)nn(-c4cccc(F)c4)c3c2c1	inactive: -10%	
CCOc1ccc(OCC)c(NC(=O)c2cc(S(=O)(=O)N3CCc4ccccc43)cn2C)c1	inactive: -14.6%	
COc1ccc(-c2nc3c(c(SCC(=O)N4CCCCC4)n2)Cc2cc(C)ccc2O3)cc1	inactive: 4.08%	
Cc1ccc(S(=O)(=O)NCC(c2ccco2)N2CCOCC2)cc1 (centres undefined)	inactive: -13%	
CC(=O)Nc1ccc(/C=C/c2noc(-c3ccccc3O)n2)cc1	inactive: 6.39%	
CCOC(=O)CSc1nc(-c2ccc(OCC)cc2)cc(C(F)(F)F)c1C#N	inactive: -6.09%	
CC(=O)c1ccc(N2CCN(S(=O)(=O)c3cc4[nH]c(=O)c(=O)[nH]c4cc3C)CC2)cc1	inactive: 7.85%	
CCc1nnc(NC(=O)c2cc(=O)c3cc(C)ccc3o2)s1	inactive: 4.42% [at 11.5 µM]	
COc1ccccc1CNC(=O)C(=O)NCC(c1cccs1)S(=O)(=O)c1ccccc1 (centres undefined)	inactive: -34.4%	

SMILES	activity change, negative = inhibition	Potency
Cc1ccc(C)c(N2CCN(C(=O)Cn3cnc4onc(-c5ccc(F)cc5)c4c3=O)CC2)c1	inactive: -7.73%	
Cc1ccc2oc(=O)c3cc(C(=O)NCCCOC(C)C)sc3c2c1	inactive: 5.05%	
COc1ccc(-n2c(SCC(=O)NCc3ccc(Cl)cc3)nc3ccsc3c2=O)cc1	inactive: -19.8%	
COc1nccnc1NS(=O)(=O)c1ccc(N)cc1	inactive: 3.91%	
Cc1ccc(NC(=O)CCCc2nc(-c3ccco3)no2)cc1Cl	inactive: 0.971%	
COc1ccc(-n2nnnc2C2CCN(S(=O)(=O)c3cccc(C(F)(F)F)c3)CC2)cc1	inactive: -11.2%	
COc1cccc(NC(=O)C(Cc2ccccc2)N2Cc3ccccc3C2=O)c1 (centres undefined)	inactive: -9.5%	
CC(C)CCOc1ccc(C(=O)NCC2OCCc3ccccc32)cc1 (centres undefined)	inactive: -2.64%	
COc1cccc(-n2c(=O)c3cc(OC)c(OC)cc3n(CC(=O)Nc3ccc(F)cc3)c2=O)c1	inactive: -12.1%	
COc1cc(NC(=O)c2cccc(Cl)c2Cl)ccc1NC(=O)c1cc2ccccc2o1	inactive: -27.9%	
CCS(=O)(=O)N1CCCc2cc(C(=O)Nc3cccc(C(C)=O)c3)ccc21	inactive: -19.5%	
CCCn1c2ccc(F)cc2c2nnc(SCCN3CCCCC3)nc21	inactive: -15.9%	
CCC(=O)N1CCc2cc(Br)cc(S(=O)(=O)CCC(=O)Nc3cccc(Cl)c3)c21	inactive: -15.2%	
CCCc1cnc2c(c1SCC(=O)Nc1ccccc1OCC)c(=O)n(C)c(=O)n2C	inactive: -16.8%	
Clc1ccc(-c2nnn3c2nc(NC2CCCCC2)c2ccccc23)cc1	inactive: -15.8%	
CCOc1ccc(Nc2ncnc3c2c(-c2ccccc2)cn3-c2cccc(C)c2)cc1	inactive: -6.03%	
CCOc1ccc(C(=O)N(Cc2ccc(C(C)C)cc2)Cc2ccco2)cc1	inactive: -21%	
Cc1cc2c(cc1NS(=O)(=O)c1ccc(Br)cc1)n(C)c(=O)c(=O)n2C	inactive: -21.9%	
CCCSCCCNC(=O)c1ccc(C)c(NC(=O)c2nsc3ccccc23)c1	inactive: -13.6%	
Cc1cccc(C)c1NC(=O)CN1CCCC1	inactive: 0.76%	
COc1cccc(Cn2nc(SC)c(S(=O)(=O)c3ccccc3)c2N(C(C)=O)C(C)=O)c1	inactive: -28.3%	
COc1cc2c(cc1OC)C(c1cccc(Cl)c1)CC(=O)N2 (centres undefined)	inactive: -22.9%	
N#CCC(=O)NN	inactive: -1.29%	
CCc1ccc(OCCSc2nc3ccccc3n2CC(=O)N2CCCCC2)cc1	inactive: -37.7%	
